Results reported in the supplement of paper PMC10126150.
Values marked as one replicate rest on one cluster of the flow cell; about a third of the high ones do not repeat.

System: ATP
Assay: switch fluorescence ratio, 500 uM ATP over buffer (Cy3 cluster intensity, sum of 5 cycles each) (fold (ratio)); higher = stronger signal-on switching upon ATP binding; sequences stand for … in TCGTCGGCAGCGTCAGATGTGTATAAGAGACAGTTTTTTTTTTTTTTTTTTTTTTTTT…TC
Conditions: aptamer strand: ATP DNA aptamer (quencher-CACCTGGGGGAGTATTGCGGAGGAAGG + anchor), 100 nM annealed; ATP concentration: 500 uM; one replicate
Summary of the method: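 Exposure to 500 uM ATP lasted 15 min at 22 °C before imaging, and a selection-buffer image was taken beforehand, for Cy3-labelled switching-strand clusters on a modified Illumina MiSeq flow-cell annealed to 100 nM quencher-labelled ATP aptamer. Five buffer/ATP cycles were run with NaOH stripping and re-annealing between them. The fluorescence ratio per cluster is summed target-cycle over summed buffer-cycle Cy3 intensity, averaged per switch-domain sequence. Clusters outside 100-1000 RFU were excluded.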

Row | Sequence | switch fluorescence ratio
1 | CCGTGCAGGA | 1.12
2 | TTTGAAATTC | 1.16
3 | TCAATGAATT | 1.01
4 | AAGCTACACA | 1.05
5 | ATAAGGAGCT | 0.988
6 | AACCAAAAGT | 0.968
7 | ACGGCAGTTG | 1.01
8 | CCTATAAGG | 0.995
9 | GTTAGGGAAC | 0.999
10 | CCGCCGGAGC | 2.43
11 | GTCCGTGAGA | 1.01
12 | GGACGAATA | 1.01
13 | AACGCTCAGC | 1.04
14 | ACACTCTACT | 1.32
15 | TGAAAATCAT | 0.982
16 | TGGCGTTCAG | 0.999
17 | CGCTTTTTCG | 1
18 | ACTTATACCC | 1.16
19 | AATGGATTAT | 1.01
20 | GCTCGCAGGG | 1.02
21 | TTACTAGTGG | 0.971
22 | TCTGTGTGCA | 0.951
23 | AGTGGTCGAG | 0.993
24 | GGTTGCGAGT | 1
25 | TAAGTCCGAT | 0.967
26 | ATAATTGGGC | 1.02

Row | Sequence | switch fluorescence ratio
27 | ACGGGCATGG | 1
28 | TTGGGTTTT | 1.01
29 | AGCCGTATTA | 1.01
30 | TCATCGCATA | 3.37
31 | GCAGAGGCGG | 0.998
32 | TGTGACGTCG | 1.06
33 | GTCGGATTAC | 1.22
34 | TTTTACTCCC | 2.05
35 | ACTCTTTACC | 1.15
36 | GGCAGCCCAT | 1.01
37 | TCAAAGGAAT | 1.03
38 | TATACCCTCT | 0.988
39 | GGGGCGCGTG | 0.969
40 | ATTTGCAAGG | 1
41 | GGTTGTCCTG | 1.02
42 | CTACTTGCGG | 1.02
43 | AACATCATGG | 1.03
44 | GGCCCTTTAG | 1.02
45 | GGCTGGGGCC | 1.01
46 | TTAGAGCTCT | 1
47 | TCAGTTCTA | 0.975
48 | AACGGAACTC | 1.16
49 | TGACATGGGC | 0.976
50 | AGAGCATAAT | 1.01
51 | CTGGAGGAGC | 1.01
52 | GGTGTGTACA | 0.955

Row | Sequence | switch fluorescence ratio
53 | TGCCTCTGCA | 1.76
54 | ACAGCTGGTG | 1.11
55 | TTGACGGTTT | 1.02
56 | AGTTAATGTC | 0.954
57 | TAAACGCTTT | 1.01
58 | AAGGGAATTC | 1.03
59 | CGCGAAGACA | 1.05
60 | ATTTCTCACG | 1.02
61 | TCAAAGAGTT | 1.02
62 | ATGATATACG | 1.04
63 | TAGGGTCTGC | 1.03
64 | GCAAAGGTAG | 1.02
65 | GGGGTTACCA | 1.01
66 | ATCGGTATCT | 0.98
67 | TTTCTCCTGT | 1.01
68 | CACGGTCAAA | 1.06
69 | TTGAGTTCGC | 1.03
70 | CGACAGAAAA | 0.96
71 | TAGGTAGCCG | 1.14
72 | TTCTAGTACC | 1.05
73 | GACACGGAG | 1.04
74 | TTATCATTGG | 0.975
75 | CAGAAATCTG | 1.17
76 | AAGTGTGACC | 0.965
77 | GGGGAAATTC | 1.14
78 | ACACCTATAT | 1.13

Row | Sequence | switch fluorescence ratio
79 | TTTAAACATT | 1.03
80 | GCACGATAAA | 1.15
81 | CTACTGGCAG | 0.968
82 | CGGCAGACTC | 2.84
83 | GTAATTGGTC | 1.07
84 | CGCCCAACTA | 1.15
85 | CCTAGTACAC | 1.15
86 | GACGAAGTCA | 1.05
87 | ATATTTTGCA | 1.03
88 | ATGATATCAG | 1
89 | ATTGTACCAT | 1.03
90 | CGGGGAGAGA | 0.998
91 | GATCCCCTGC | 1.01
92 | TGAATTCCTT | 0.974
93 | TTCCATTCT | 0.959
94 | CTAGTATCCC | 1.01
95 | TATTTACACG | 1.05
96 | GACAAGCGG | 1.05
97 | CATTGAATGT | 0.995
98 | GCTCTTAATG | 0.967
99 | GCACGGGGTG | 0.985
100 | ATATTTCTA | 0.988
101 | AACAGAGCCG | 1.06
102 | AGATTCTCCT | 1.05
103 | AGATCTAAGA | 0.962
104 | TAGCAGGTCC | 1.06

Row | Sequence | switch fluorescence ratio
105 | ACATCGTTTT | 0.985
106 | GAGTACAGGC | 1.08
107 | TGGTGGGCTT | 1.01
108 | CAGCCGTAG | 1
109 | TCCTCACTCA | 1.33
110 | ATCGCTGATC | 1.1
111 | GGCACGTGGA | 1.02
112 | CCTGATGAGG | 1.03
113 | GAGTTTCAGC | 0.943
114 | AAGGTCTTGT | 1.01
115 | AATGGTCTAG | 0.985
116 | GAGGTCAG | 1.04
117 | CTCGGTACCG | 0.923
118 | CTGTCCATTT | 0.972
119 | TAAAAGAGCT | 1.03
120 | ATTTAGAGA | 1.03
121 | GAATTGCGTT | 0.983
122 | TGCGGTCCCG | 1.02
123 | GGCAAATTGG | 1
124 | GATAACCATT | 0.985
125 | CAGGATAATG | 0.986
126 | TTTTCGTGAT | 1.02
127 | GAGGGATAAC | 1.04
128 | CCCCCTGTGG | 2.57
129 | ACTAATCTCT | 1.06
130 | TATCAGGATC | 1.05

Row | Sequence | switch fluorescence ratio
131 | GGCCCCCTAG | 1.07
132 | CTCGACAATT | 1.14
133 | CGGCTTTCCG | 0.992
134 | CACAAGCGC | 1.03
135 | CACATATCT | 1.1
136 | CAAAGTACAG | 1.18
137 | AGCTTCTTGG | 1.01
138 | ACTATGCTAG | 0.954
139 | TGCTGTATTG | 0.948
140 | TCTGCGTTAC | 3.53
141 | TCAGCTATTA | 1.04
142 | GTTAGTAAAG | 0.965
143 | GGCCTGGTGG | 0.997
144 | GCCGCTACCG | 1.09
145 | TGCGGGCGG | 1.01
146 | ATACCCGCCT | 1.06
147 | TAGTCCGATT | 1.12
148 | GGTGTCAGGT | 0.988
149 | GACTCTAGAT | 1.08
150 | AGGTACTTAT | 1.06
151 | AGGGCTTAT | 1
152 | TAGGGTTCGA | 0.997
153 | GGACTCGGC | 0.918
154 | CATAATGAAC | 1.01
155 | TGTAACTTAC | 1.25
156 | CGCAAAGAT | 1.49

Row | Sequence | switch fluorescence ratio
157 | GTGATATGTG | 1.02
158 | GAACTGAAGC | 1.01
159 | AAGCGAATAA | 1.29
160 | TCGTACTGA | 1.04
161 | CGTATGTGCA | 0.987
162 | ACATATGATT | 1.03
163 | CGAACTGTTA | 1.01
164 | TTCTCATTTA | 1.03
165 | CTTGTCCGCC | 1.62
166 | TTTACTGGTC | 1.02
167 | GTGAGCAATT | 1.38
168 | GCGTCGTGTA | 0.947
169 | CCATTTTGT | 1.03
170 | AGGCAGACG | 1.07
171 | TGGATGCGAG | 0.984
172 | ATCTAGTCGA | 1.01
173 | GGCTAAGTGA | 1.02
174 | CGCACAGATC | 1.11
175 | GGGAGATCAG | 1.01
176 | GTCTACCATA | 1.06
177 | TTGGTTGTCC | 0.979
178 | AGATGAAGCG | 0.993
179 | GTATGCTGTG | 1.01
180 | CTACAGGGCA | 1.04
181 | GATATCATGG | 1.08
182 | TCAATCATGT | 1.03

Row | Sequence | switch fluorescence ratio
183 | GATTTGAGGA | 1.03
184 | TAGCCGACCT | 0.984
185 | GGGTTTGCCA | 1.03
186 | AAAGTACCTC | 1.09
187 | TTTTACTAGG | 1.07
188 | AAATAATGTA | 1.01
189 | GATCGAGAAT | 0.998
190 | AATAAGCGTC | 0.975
191 | TGGAATCAAC | 1.01
192 | TATGATCATG | 0.988
193 | TCGAATGTGG | 1.02
194 | AGGAACGCTT | 1.01
195 | ATCCGATAGG | 1.01
196 | CTTGAATTAA | 0.996
197 | GTCTCAAGTA | 0.98
198 | GGAGTCGCCG | 0.931
199 | TGTTTACTCC | 1.16
200 | GTTTGTGCAG | 0.993
201 | CAGTGTATAG | 0.963
